# Experimental data taken from publication PMC4336329 (PLoS ONE, 2015).
# Out of some 310,000 compounds screened, about 14,000 (4.5%) showed an effect of 50% or more. Effects have a minus sign here. The list shows a part of the results.
# Target: human ether-à-go-go-related gene (hERG) potassium channel (human, UniProt Q12809)
# Experiment: primary screen, population patch clamp on CHO cells stably expressing hERG
# 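Also: peak tail current of the secondary pulse compared with the same well before compound.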
# Sequence of human ether-à-go-go-related gene (hERG) potassium channel (Q12809 whole entry, looked up): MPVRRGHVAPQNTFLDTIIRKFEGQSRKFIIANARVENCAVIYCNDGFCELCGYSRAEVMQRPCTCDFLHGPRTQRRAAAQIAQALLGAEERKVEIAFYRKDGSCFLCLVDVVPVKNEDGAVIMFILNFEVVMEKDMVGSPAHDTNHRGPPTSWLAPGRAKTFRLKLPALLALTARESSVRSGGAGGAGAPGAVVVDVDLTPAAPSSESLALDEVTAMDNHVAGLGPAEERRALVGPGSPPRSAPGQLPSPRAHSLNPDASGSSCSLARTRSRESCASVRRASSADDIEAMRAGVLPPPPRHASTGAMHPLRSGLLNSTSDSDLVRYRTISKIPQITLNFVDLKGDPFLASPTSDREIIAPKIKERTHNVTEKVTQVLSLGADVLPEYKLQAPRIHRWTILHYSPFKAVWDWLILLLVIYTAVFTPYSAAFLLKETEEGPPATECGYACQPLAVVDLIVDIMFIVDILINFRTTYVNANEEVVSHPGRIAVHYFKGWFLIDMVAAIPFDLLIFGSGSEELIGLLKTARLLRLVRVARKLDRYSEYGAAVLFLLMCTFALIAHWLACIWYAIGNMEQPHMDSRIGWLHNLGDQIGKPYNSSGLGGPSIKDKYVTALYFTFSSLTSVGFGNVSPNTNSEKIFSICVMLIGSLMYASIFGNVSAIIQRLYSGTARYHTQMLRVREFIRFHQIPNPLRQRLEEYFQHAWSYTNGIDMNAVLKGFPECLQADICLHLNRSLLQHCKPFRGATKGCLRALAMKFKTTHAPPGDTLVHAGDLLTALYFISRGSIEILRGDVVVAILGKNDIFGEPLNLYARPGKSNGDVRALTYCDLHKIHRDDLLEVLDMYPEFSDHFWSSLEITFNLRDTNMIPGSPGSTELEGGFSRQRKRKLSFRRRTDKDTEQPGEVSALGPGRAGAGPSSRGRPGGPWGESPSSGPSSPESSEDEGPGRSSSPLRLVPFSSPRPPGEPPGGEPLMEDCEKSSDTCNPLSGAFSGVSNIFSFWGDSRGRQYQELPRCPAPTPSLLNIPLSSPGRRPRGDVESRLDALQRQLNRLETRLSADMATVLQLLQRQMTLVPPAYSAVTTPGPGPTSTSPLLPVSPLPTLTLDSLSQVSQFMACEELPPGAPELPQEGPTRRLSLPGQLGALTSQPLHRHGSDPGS
row,SMILES,"hERG current change (%, negative = inhibition) at 10uM [%]"
1,NC(=O)c1c(NC(=O)c2cccnc2Cl)sc2c1CCCC2,-1.56
2,N#CSc1ccc2oc(C3=NCCN3)cc2c1,0.521
3,Cc1ccc(-c2nnc(SCC(=O)NNC(=O)COc3ccccc3C)n2C)cc1,12.7
4,O=[N+]([O-])c1ccc(CN2CCN(c3ccccc3Cl)CC2)o1,11.9
5,COc1ccc(OCC(=O)N/N=C\c2ccco2)cc1,10.6
6,O=C(Cc1coc2ccc3ccccc3c12)NCc1ccccc1,-4.58
7,Cc1cc(Cl)ccc1OCC(=O)OCC(=O)Nc1ccc(F)c([N+](=O)[O-])c1,-1.18
8,Cc1cc(C(=O)NCCC2=CCCCC2)ccc1[N+](=O)[O-],-27.5
9,O=C(COC(=O)c1n[nH]c2ccccc12)NCc1ccccc1,-24.5
10,COc1ccccc1CC(=O)Nc1ccc([N+](=O)[O-])cc1OC,5.69
11,O=C(CCC(=O)c1ccccc1)Nc1ccccc1,17.5
12,CCOC(=O)C1CCCN(CCC(=O)Nc2ccc(C)cc2)C1.Cl (stereo not shown),-30.4
13,COc1ccc(C(=O)Nc2ccccc2C(=O)NCCN2CCOCC2)cc1,-9.6
14,COc1ccc(NC(=O)CSCC(=O)Nc2ccc(C)c(S(=O)(=O)N3CCCCCC3)c2)cc1,-36.9
15,CCNC(=S)N/N=C(\C)c1ccc2ccccc2c1,13.8
16,O=C(CCC(NC(=O)OCc1ccccc1)C(=O)OCC(=O)N1CCCCC1)OCC(=O)N1CCCCC1 (stereo not shown),2.72
17,COc1ccc(C(=O)CN(CCC(=O)O)S(=O)(=O)c2ccc([N+](=O)[O-])cc2)cc1,-1.15
18,O=C(Nc1ccc2c(c1)CN(Cc1ccc(CO)o1)CC2)c1ccc(C(F)(F)F)cc1,-24.1
19,Oc1ccc(Br)cc1/C=N/N1CCN(Cc2ccccc2)CC1,9.35
20,CCN(/C(N)=N/c1nc(C)cc(C)n1)c1ccccc1,-6.01
21,Cc1ccc(NC(=O)COC(=O)C2CC3C=CC2C3)cc1S(=O)(=O)N1CCCCC1 (stereo not shown),-7.32
22,CCOC(=O)c1c(S(=O)(=O)N(C)Cc2ccco2)c(C)n(C)c1C,-3.13

row,SMILES,"hERG current change (%, negative = inhibition) at 10uM [%]"
1,CCCCN1C(=O)c2ccc(C(=O)Nc3ccccc3N3CCOCC3)cc2C1=O,7.18
2,COc1cc(N/N=C/c2ccccc2O)ncn1,4.11
3,CCOC(=O)c1c(NC(=O)c2c(C)noc2C)sc2c1CCCCC2,6.51
4,COc1cc(NS(=O)(=O)c2ccc(N/C=C(\C#N)c3nc4cc(Cl)ccc4o3)cc2)nc(OC)n1,-7.44
5,Oc1ccccc1-c1nnc(COc2ccc(Cl)cc2Cl)o1,7.42
6,Cc1csc(=O)n1CC(=O)OCc1cccc2ccccc12,-9.39
7,O=C(/C=C/c1cccc([N+](=O)[O-])c1)NC1CC2CCC1C2 (stereo not shown),-24.7
8,CCOc1cc(/C=C2\CN(C)C/C(=C\c3ccc(O)c(OCC)c3)C2=O)ccc1O.Cl,10.1
9,O=C(COc1ccc(Cl)cc1)N(Cc1ccco1)C1CCS(=O)(=O)C1 (stereo not shown),-20.5
10,COc1ccc(/C=C(\C#N)C(=O)C(C)(C)n2cncn2)cc1,26.6
11,CCNC(=S)Nc1ccc(C)c(Cl)c1,6.69
12,COc1ccc2cc(/C=N/NC(=O)CN(c3ccccc3)S(=O)(=O)c3ccccc3)c(Cl)nc2c1,-2.5
13,O=C(NC12CC3CC(CC(C3)C1)C2)c1ccc(COc2ccc(Cl)cc2[N+](=O)[O-])o1,13.5
14,Cc1cccc(N2C(=O)C3CC3C2=O)c1 (stereo not shown),26
15,Cc1cc(=O)n2[nH]c(C(=O)O)nc2n1,18.6
16,Cc1csc(NC(=O)Cc2c[nH]c3ccccc23)n1,-12.6
17,CC1=C(C(=O)OC(C)C)C(c2ccc(Br)s2)NC(=O)N1C (stereo not shown),-18.8
18,CCOC(=O)N1CCN(C(=O)c2ccccc2N(C)S(C)(=O)=O)CC1,-5.89
19,CC(=O)NCCC(=O)N1CCCC(C(=O)c2ccc3c4c(cccc24)CC3)C1 (stereo not shown),-18.5
20,O=C1OCCC1Sc1nnc(-c2ccccc2)o1 (stereo not shown),-7.03
21,O=C(CSc1nc2ccccc2c(=O)[nH]1)c1ccccc1,2.19
22,O=C(OCC(=O)N1CCCc2ccccc21)c1ccccc1NCCO,-15.9

row,SMILES,"hERG current change (%, negative = inhibition) at 10uM [%]"
1,C=CCN(C(=O)CCC(=O)Nc1cc(C)on1)C(C(=O)NC(C)(C)CC)c1cccc(OC)c1OC (stereo not shown),7.06
2,CN(Cc1ccc(C(F)(F)F)cc1)C(=O)C1CCC(=O)N(C2CC2)C1 (stereo not shown),-51.7
3,O=C(CCSc1ccccc1)NCCSCc1ccccc1,-30
4,CSc1ccccc1NC(=O)Nc1ccc(Cl)cc1,-1.3
5,CSc1nc(C)c2c(n1)N(c1cccc(C)c1)CC2,22.1
6,CC(NC(=O)COC(=O)c1ccc([N+](=O)[O-])s1)c1ccccc1 (stereo not shown),-20.8
7,CCOC(=O)NC(Cc1c[nH]c2ccccc12)C(=O)NCCc1ccc(S(N)(=O)=O)cc1 (stereo not shown),24.6
8,COc1cccc(C(=O)/C=C2\NCCc3cc(OC)c(OC)cc32)c1,-8.73
9,CCc1nnc(SCC(=O)N2CCCc3ccccc32)nc1CC,-6.92
10,O=C(c1cc([N+](=O)[O-])ccc1Cl)N1CCN(c2ccc(F)cc2)CC1,-27.9
11,CC1CN(C(=O)c2ccc(COc3ccccc3Cl)o2)CC(C)O1 (stereo not shown),3.79
12,COCCn1c(C)cc(C(=O)COC(=O)c2ccc[nH]c2=O)c1C,19.2
13,CCN(CC)S(=O)(=O)c1ccc2[nH]c(=O)cc(C(=O)Nc3cccc(C(C)=O)c3)c2c1,14.7
14,COc1ccc(N2CCCn3c2nc2c3c(=O)n(Cc3ccccc3F)c(=O)n2C)c(OC)c1,-6.44
15,COC(=O)/C=C\C(=O)Nc1cccc([N+](=O)[O-])c1,19.1
16,COc1ccccc1CN(C)CC(=O)Nc1ccc(Cl)cc1C(F)(F)F.O=C(O)C(=O)O,3.8
17,COc1ccc(NC(=O)c2ccc(CNc3c(NC4CCCCC4)c(=O)c3=O)cc2)c(OC)c1,5.92
18,COc1ccc2oc(C(=O)N3CCN(C/C=C/c4ccccc4)CC3)c(C)c2c1,-44.8
19,O=C(CN1C2CCCC1CC(NC(=O)C1CCCCC1)C2)Nc1ccccc1 (stereo not shown),-27
20,Cl.O=C(NCCc1ccccn1)c1cc(-c2ccc(Cl)c(Cl)c2Cl)nc2ccccc12,13.1
21,FC(F)(F)c1ccccc1NC(=S)N1CCN(c2ccccn2)CC1,5.12
22,O=C(/C=C/c1cccc(Br)c1)NCc1ccncc1,-12.4

row,SMILES,"hERG current change (%, negative = inhibition) at 10uM [%]"
1,Cc1ccc(S(=O)(=O)C(c2ccccc2)c2c(C)noc2C)cc1 (stereo not shown),8.9
2,O=C(NCc1ccc2c(c1)OCO2)c1cc(-c2ccccc2Cl)on1,11.9
3,Fc1ccccc1Cc1noc(CN(Cc2ccccn2)CC2CCCO2)n1 (stereo not shown),0.0868
4,CCc1ccc(NC(=O)c2cnccn2)cc1,9.23
5,CCCCn1c(N)c(Br)c(=O)[nH]c1=O,-2.6
6,COc1cc([N+](=O)[O-])ccc1NC(=O)CCCOc1ccc(C)cc1,-8.58
7,COC(=O)c1ccc(Cl)c(NC(=O)CN2CCN(C)CC2)c1,-15.7
8,CN(C)C(CNC(=O)c1cccc(S(=O)(=O)N2CC3(C)CC2CC(C)(C)C3)c1)c1ccco1 (stereo not shown),-14.1
9,CCOC12NC(=O)CC(=O)N1C(c1ccccc1)=CS2 (stereo not shown),-11.3
10,COc1ccc(/C=C2/SC(=O)N(CCCCCC(=O)Nc3ccccc3C(=O)O)C2=S)cc1,13.8
11,Cc1cc(F)ccc1NC(=O)c1cc(S(=O)(=O)N2CCCC2)cn1C,-24.8
12,CCCCN(CCO)c1ncnc2sc(-c3ccccc3)cc12,17.1
13,CCCC1C2C(=O)N(c3ccccc3)C(=O)C2ON1c1ccccc1 (stereo not shown),15.7
14,COc1ccc(/C=C2\CCc3ccccc3C2=O)cc1Cn1nc(C)cc1C,-6.3
15,C=C(C)C1CC=C(C)/C(=N/NC(=O)CCC(=O)Nc2ccccc2Cl)C1 (stereo not shown),12.9
16,COC(=O)c1c(N2C(=O)[C@H]3[C@@H](C2=O)[C@]2(C(=O)Nc4ccccc42)N2CCC[C@@H]32)sc(C)c1C,20.9
17,CC(NCc1cccc(Cl)c1Cl)C(O)c1ccccc1.Cl (stereo not shown),-7.53
18,c1csc(C(c2nnnn2C2CCCC2)N2CCOCC2)c1 (stereo not shown),4.77
19,CCN(CC(=O)NCc1cccs1)C(=O)/C=C/c1ccc(OC)c(OC)c1,-23.5
20,CCSc1nnc(N(CCC#N)CCC#N)s1,9.09
21,Cc1ccc(S(=O)(=O)N2CCN(Cc3ccco3)CC2)cc1C,5.08
22,COc1ccc(CN2CCNC(=O)C2CC(=O)N2CCCN(C(C)=O)CC2)cc1OC (stereo not shown),25.5
